Source: paper PMC6294498, “The structural basis of CstF-77 modulation of cleavage and polyadenylation through stimulation of CstF-64 activity”
These are yes or no findings as the source states them, for the method shown. For some assays here: In cells and extracts the contact can be indirect. Some entries that bind do so weakly or less than the wild type. For some assays here: Tags and fused reporters may be left off the sequences shown. One block for each binder: values may come before it.

Columns and labels:
CstF-77-Myc (human) [1] = target: T1, CstF-77-Myc (human) (UniProt Q12996); test: condition: only conditions of CLIP using RIPA buffer; co-IP; conditions of CLIP: transfected HeLa cells UV-crosslinked, lysed in RIPA buffer, anti-Myc antibody (9E10); immunoblot
T1 sequence: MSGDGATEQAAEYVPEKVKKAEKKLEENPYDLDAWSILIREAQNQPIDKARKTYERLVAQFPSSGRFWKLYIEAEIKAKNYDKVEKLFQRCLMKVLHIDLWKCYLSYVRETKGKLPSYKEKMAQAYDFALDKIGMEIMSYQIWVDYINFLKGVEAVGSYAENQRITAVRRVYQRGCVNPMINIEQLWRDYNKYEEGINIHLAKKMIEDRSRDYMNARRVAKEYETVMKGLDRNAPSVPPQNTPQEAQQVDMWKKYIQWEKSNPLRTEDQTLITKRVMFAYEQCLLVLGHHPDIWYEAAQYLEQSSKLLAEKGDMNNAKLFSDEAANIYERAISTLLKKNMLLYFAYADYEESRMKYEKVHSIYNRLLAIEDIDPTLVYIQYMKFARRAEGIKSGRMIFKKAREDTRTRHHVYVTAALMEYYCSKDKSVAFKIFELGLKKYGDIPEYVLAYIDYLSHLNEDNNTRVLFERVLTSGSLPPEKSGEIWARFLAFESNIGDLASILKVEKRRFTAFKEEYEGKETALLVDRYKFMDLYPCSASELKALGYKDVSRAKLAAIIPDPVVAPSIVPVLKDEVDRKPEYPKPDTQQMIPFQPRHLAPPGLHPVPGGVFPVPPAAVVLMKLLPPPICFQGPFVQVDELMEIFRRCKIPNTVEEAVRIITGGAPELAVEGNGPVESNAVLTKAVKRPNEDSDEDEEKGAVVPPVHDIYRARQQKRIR

CstF-77-Myc (human) [2] = target: T1, CstF-77-Myc (human); test: co-IP; anti-Myc antibody (9E10) on Dynabeads Protein G; pooled SLAP lysates of transfected HeLa cells diluted with 2 × NP-40 buffer (100 mM Tris–HCl pH 7.4, 300 mM NaCl, 2% NP-40); 4°C, 1 h; immunoblot
CstF-77-Myc-dm77 (human) = target: T2, CstF-77-Myc-dm77 (human) (UniProt Q12996); test: as above
T2 sequence: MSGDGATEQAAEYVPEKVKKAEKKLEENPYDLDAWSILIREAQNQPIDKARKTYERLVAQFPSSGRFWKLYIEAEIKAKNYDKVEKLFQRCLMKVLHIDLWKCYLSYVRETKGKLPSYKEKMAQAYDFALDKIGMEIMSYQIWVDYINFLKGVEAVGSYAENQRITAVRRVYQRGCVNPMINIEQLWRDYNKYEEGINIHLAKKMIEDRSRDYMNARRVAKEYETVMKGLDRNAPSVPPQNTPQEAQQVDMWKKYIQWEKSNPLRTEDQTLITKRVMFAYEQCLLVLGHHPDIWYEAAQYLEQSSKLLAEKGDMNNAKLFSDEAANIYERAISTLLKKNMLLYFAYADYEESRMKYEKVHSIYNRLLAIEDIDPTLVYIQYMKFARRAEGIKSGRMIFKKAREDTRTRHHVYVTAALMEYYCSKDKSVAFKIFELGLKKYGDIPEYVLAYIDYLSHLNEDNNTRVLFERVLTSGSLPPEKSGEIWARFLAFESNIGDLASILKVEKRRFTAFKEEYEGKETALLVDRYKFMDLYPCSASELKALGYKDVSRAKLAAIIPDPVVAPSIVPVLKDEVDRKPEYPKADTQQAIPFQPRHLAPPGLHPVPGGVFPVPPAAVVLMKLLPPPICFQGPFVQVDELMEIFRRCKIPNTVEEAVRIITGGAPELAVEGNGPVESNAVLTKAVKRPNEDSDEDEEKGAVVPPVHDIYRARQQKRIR

[3] = target: T3, CstF-77 MT-CTD (amino acids 607–717) (human) (UniProt Q12996); test: co-expression and co-purification, complex seen by 1H-15N HSQC NMR; bicistronic co-expression in E. coli; amylose resin by the MBP on the CstF-77 fragment, tags removed with TEV, HisTrap; HSQC in 10 mM phosphate buffer pH 6.0, 2 mM TCEP, 30°C
T3 sequence: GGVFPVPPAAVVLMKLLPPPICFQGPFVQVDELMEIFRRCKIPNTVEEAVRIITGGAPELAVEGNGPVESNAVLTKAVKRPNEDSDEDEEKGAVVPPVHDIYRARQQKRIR

[4] = target: T4, CstF-77 MT (MT-CTD with the last 30 amino acids removed) (human) (UniProt Q12996); test: as above
T4 sequence: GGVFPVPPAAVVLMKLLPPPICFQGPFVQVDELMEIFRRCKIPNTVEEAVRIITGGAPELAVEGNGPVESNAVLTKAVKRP

[5] = target: T5, CstF-77-Myc (human), Q12996; test: co-IP; anti-Myc antibody (9E10) on Dynabeads Protein G; pooled SLAP lysates of transfected HeLa cells diluted with 2 × NP-40 buffer (100 mM Tris–HCl pH 7.4, 300 mM NaCl, 2% NP-40); 4°C, 1 h; immunoblot; conditions: remark: other sources report otherwise
T5 chain: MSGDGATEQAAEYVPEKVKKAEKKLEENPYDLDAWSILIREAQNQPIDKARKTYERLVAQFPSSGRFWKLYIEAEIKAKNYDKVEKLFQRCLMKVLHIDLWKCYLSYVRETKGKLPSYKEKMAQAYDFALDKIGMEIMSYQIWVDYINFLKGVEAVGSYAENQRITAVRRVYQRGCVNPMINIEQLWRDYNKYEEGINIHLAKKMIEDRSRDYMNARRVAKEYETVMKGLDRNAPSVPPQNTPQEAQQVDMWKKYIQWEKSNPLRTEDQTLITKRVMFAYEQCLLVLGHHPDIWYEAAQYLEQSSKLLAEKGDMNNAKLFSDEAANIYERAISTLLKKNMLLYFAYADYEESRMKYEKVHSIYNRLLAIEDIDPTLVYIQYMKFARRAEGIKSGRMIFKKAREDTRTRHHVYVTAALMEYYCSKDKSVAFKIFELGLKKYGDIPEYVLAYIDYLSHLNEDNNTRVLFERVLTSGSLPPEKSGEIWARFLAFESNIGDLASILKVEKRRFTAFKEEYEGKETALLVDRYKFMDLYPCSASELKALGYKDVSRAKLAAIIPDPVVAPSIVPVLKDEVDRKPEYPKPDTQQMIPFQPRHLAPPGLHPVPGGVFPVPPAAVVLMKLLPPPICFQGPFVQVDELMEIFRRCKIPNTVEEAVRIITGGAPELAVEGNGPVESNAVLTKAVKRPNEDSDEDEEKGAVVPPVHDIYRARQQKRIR

CstF-77ΔM-Myc (human) = target: T6, CstF-77ΔM-Myc (human) (UniProt Q12996); test: as above
T6 sequence: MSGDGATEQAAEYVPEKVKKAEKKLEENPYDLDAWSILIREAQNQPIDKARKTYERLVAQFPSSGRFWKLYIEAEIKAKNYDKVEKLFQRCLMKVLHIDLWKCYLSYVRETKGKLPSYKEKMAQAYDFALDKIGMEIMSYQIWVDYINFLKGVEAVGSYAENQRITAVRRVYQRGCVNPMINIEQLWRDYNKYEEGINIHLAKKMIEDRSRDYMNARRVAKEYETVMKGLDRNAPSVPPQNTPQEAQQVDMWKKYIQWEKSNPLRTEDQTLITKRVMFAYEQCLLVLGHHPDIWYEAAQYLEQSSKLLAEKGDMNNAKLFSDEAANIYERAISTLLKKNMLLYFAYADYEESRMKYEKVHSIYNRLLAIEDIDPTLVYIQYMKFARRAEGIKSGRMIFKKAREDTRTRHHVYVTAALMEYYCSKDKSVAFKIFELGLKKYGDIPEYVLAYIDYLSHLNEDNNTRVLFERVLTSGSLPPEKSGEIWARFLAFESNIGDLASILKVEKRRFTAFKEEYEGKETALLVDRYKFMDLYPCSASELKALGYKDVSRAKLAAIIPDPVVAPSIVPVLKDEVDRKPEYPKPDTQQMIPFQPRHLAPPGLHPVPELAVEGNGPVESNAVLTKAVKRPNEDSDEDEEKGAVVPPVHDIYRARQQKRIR

B3: CstF-64 RRM-Hinge (amino acids 1–195) (domain or fragment, UniProt P33240 1-195)
chain: MAGLTVRDPAVDRSLRSVFVGNIPYEATEEQLKDIFSEVGPVVSFRLVYDRETGKPKGYGFCEYQDQETALSAMRNLNGREFSGRALRVDNAASEKNKEELKSLGTGAPVIESPYGETISPEDAPESISKAVASLPPEQMFELMKQMKLCVQNSPQEARNMLLQNPQLAYALLQAQVVMRIVDPEIALKILHRQT
binding [3]: binds | binding [4]: binds

B4: endogenous CstF-77, Q12996 1-717 (protein)
chain: MSGDGATEQAAEYVPEKVKKAEKKLEENPYDLDAWSILIREAQNQPIDKARKTYERLVAQFPSSGRFWKLYIEAEIKAKNYDKVEKLFQRCLMKVLHIDLWKCYLSYVRETKGKLPSYKEKMAQAYDFALDKIGMEIMSYQIWVDYINFLKGVEAVGSYAENQRITAVRRVYQRGCVNPMINIEQLWRDYNKYEEGINIHLAKKMIEDRSRDYMNARRVAKEYETVMKGLDRNAPSVPPQNTPQEAQQVDMWKKYIQWEKSNPLRTEDQTLITKRVMFAYEQCLLVLGHHPDIWYEAAQYLEQSSKLLAEKGDMNNAKLFSDEAANIYERAISTLLKKNMLLYFAYADYEESRMKYEKVHSIYNRLLAIEDIDPTLVYIQYMKFARRAEGIKSGRMIFKKAREDTRTRHHVYVTAALMEYYCSKDKSVAFKIFELGLKKYGDIPEYVLAYIDYLSHLNEDNNTRVLFERVLTSGSLPPEKSGEIWARFLAFESNIGDLASILKVEKRRFTAFKEEYEGKETALLVDRYKFMDLYPCSASELKALGYKDVSRAKLAAIIPDPVVAPSIVPVLKDEVDRKPEYPKPDTQQMIPFQPRHLAPPGLHPVPGGVFPVPPAAVVLMKLLPPPICFQGPFVQVDELMEIFRRCKIPNTVEEAVRIITGGAPELAVEGNGPVESNAVLTKAVKRPNEDSDEDEEKGAVVPPVHDIYRARQQKRIR
binding [5]: binds

B5: endogenous CstF-77 (protein, UniProt Q12996 1-717)
chain: MSGDGATEQAAEYVPEKVKKAEKKLEENPYDLDAWSILIREAQNQPIDKARKTYERLVAQFPSSGRFWKLYIEAEIKAKNYDKVEKLFQRCLMKVLHIDLWKCYLSYVRETKGKLPSYKEKMAQAYDFALDKIGMEIMSYQIWVDYINFLKGVEAVGSYAENQRITAVRRVYQRGCVNPMINIEQLWRDYNKYEEGINIHLAKKMIEDRSRDYMNARRVAKEYETVMKGLDRNAPSVPPQNTPQEAQQVDMWKKYIQWEKSNPLRTEDQTLITKRVMFAYEQCLLVLGHHPDIWYEAAQYLEQSSKLLAEKGDMNNAKLFSDEAANIYERAISTLLKKNMLLYFAYADYEESRMKYEKVHSIYNRLLAIEDIDPTLVYIQYMKFARRAEGIKSGRMIFKKAREDTRTRHHVYVTAALMEYYCSKDKSVAFKIFELGLKKYGDIPEYVLAYIDYLSHLNEDNNTRVLFERVLTSGSLPPEKSGEIWARFLAFESNIGDLASILKVEKRRFTAFKEEYEGKETALLVDRYKFMDLYPCSASELKALGYKDVSRAKLAAIIPDPVVAPSIVPVLKDEVDRKPEYPKPDTQQMIPFQPRHLAPPGLHPVPGGVFPVPPAAVVLMKLLPPPICFQGPFVQVDELMEIFRRCKIPNTVEEAVRIITGGAPELAVEGNGPVESNAVLTKAVKRPNEDSDEDEEKGAVVPPVHDIYRARQQKRIR
binding (CstF-77ΔM-Myc (human)): no binding

More lines, now with the values ahead:

binding (CstF-77-Myc (human) [1]): no binding | binding (CstF-77-Myc (human) [2]): binds
B1: MCP-CstF-64 (protein, UniProt P33240 1-577)
chain: MAGLTVRDPAVDRSLRSVFVGNIPYEATEEQLKDIFSEVGPVVSFRLVYDRETGKPKGYGFCEYQDQETALSAMRNLNGREFSGRALRVDNAASEKNKEELKSLGTGAPVIESPYGETISPEDAPESISKAVASLPPEQMFELMKQMKLCVQNSPQEARNMLLQNPQLAYALLQAQVVMRIVDPEIALKILHRQTNIPTLIAGNPQPVHGAGPGSGSNVSMNQQNPQAPQAQSLGGMHVNGAPPLMQASMQGGVPAPGQMPAAVTGPGPGSLAPGGGMQAQVGMPGSGPVSMERGQVPMQDPRAAMQRGSLPANVPTPRGLLGDAPNDPRGGTLLSVTGEVEPRGYLGPPHQGPPMHHVPGHESRGPPPHELRGGPLPEPRPLMAEPRGPMLDQRGPPLDGRGGRDPRGIDARGMEARAMEARGLDARGLEARAMEARAMEARAMEARAMEARAMEVRGMEARGMDTRGPVPGPRGPIPSGMQGPSPINMGAVVPQGSRQVPVMQGTGMQGASIQGGSQPGGFSPGQNQVTPQDHEKAALIMQVLQLTADQIAMLPPEQRQSILILKEQIQKSTGAP

binding (CstF-77-Myc-dm77 (human)): no binding | binding (CstF-77-Myc (human) [2]): binds
B2: endogenous CstF-50 (protein, UniProt Q05048 1-431)
chain: MYRTKVGLKDRQQLYKLIISQLLYDGYISIANGLINEIKPQSVCAPSEQLLHLIKLGMENDDTAVQYAIGRSDTVAPGTGIDLEFDADVQTMSPEASEYETCYVTSHKGPCRVATYSRDGQLIATGSADASIKILDTERMLAKSAMPIEVMMNETAQQNMENHPVIRTLYDHVDEVTCLAFHPTEQILASGSRDYTLKLFDYSKPSAKRAFKYIQEAEMLRSISFHPSGDFILVGTQHPTLRLYDINTFQCFVSCNPQDQHTDAICSVNYNSSANMYVTGSKDGCIKLWDGVSNRCITTFEKAHDGAEVCSAIFSKNSKYILSSGKDSVAKLWEISTGRTLVRYTGAGLSGRQVHRTQAVFNHTEDYVLLPDERTISLCCWDSRTAERRNLLSLGHNNIVRCIVHSPTNPGFMTCSDDFRARFWYRRSTTD
